Not every detail of the peptide structures is certain; ends, links or a residue may be inferred. For some of these results: At least one structure is not confirmed: it was looked up by name or label, or the drawing left a doubt. Where a SMILES comes first, the peptide text is derived from it. Bridges are numbered along the chain shown (N, C = ends). Roman numbers before positions name the chains, in order. Where no end group is shown, it is not given here.
Assays:
G-CSFR [1] = molecular target: T1, G-CSFR (Homo sapiens, UniProt Q99062); experiment: G-CSF competition binding assay (125I labeled G-CSF, immobilized G-CSFR in microtiter wells); parameters: made in house; conditions: reduction of bound 125I labeled G-CSF; overnight at 4° C.
T1 sequence (Q99062 25-836): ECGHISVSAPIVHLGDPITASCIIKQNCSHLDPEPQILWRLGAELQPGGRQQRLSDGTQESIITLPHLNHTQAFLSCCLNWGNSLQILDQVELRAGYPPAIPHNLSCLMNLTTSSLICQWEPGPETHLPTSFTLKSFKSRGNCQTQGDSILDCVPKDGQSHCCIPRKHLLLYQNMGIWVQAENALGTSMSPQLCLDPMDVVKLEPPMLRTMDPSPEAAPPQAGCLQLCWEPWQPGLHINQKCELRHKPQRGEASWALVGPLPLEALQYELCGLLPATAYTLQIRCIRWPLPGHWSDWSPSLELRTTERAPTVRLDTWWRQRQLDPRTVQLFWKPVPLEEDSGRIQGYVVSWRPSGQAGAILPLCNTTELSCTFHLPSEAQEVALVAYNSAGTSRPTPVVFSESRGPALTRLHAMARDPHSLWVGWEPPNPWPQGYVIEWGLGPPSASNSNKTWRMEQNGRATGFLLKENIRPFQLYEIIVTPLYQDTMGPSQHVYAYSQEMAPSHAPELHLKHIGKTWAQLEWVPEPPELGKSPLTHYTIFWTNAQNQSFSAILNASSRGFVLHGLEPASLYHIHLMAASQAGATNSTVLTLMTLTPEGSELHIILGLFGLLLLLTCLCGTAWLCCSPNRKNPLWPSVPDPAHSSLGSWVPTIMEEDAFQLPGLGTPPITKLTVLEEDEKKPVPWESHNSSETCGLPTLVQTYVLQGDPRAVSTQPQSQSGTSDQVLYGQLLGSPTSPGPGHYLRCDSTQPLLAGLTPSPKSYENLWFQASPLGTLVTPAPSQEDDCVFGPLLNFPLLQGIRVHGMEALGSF
Method: Determination of competitive binding was also carried out for a number of peptides. Briefly stated, G-CSFR was purified using standard techniques. The receptor was then immobilized in microtiter plate wells that were coated with acid-treated antibody (A b179) specific for a site on G-CSFR not involved with G-CSF binding. Separately, ^125I was coupled to the natural ligand G-CSF using techniques well known in the art. Test peptides were added to receptor-coated wells and allowed to bind to immobilized receptor for approximately 30 minutes. ^125 labeled G-CSF was then introduced to the wells and incubated overnight at 4°C. Unbound ^125I labeled G-CSF was removed by washing the plate several times followed by measuring the amount of radioactivity that remained in each well using conventional techniques. […] Alternatively, if reduced amounts or no ^125I labeled G-CSF was detected, the peptide did compete.

G-CSFR [2] = molecular target: T2, G-CSFR (Homo sapiens, UniProt Q99062); experiment: Specific binding of peptides to G-CSFR; conditions: total minus non-specific binding; unlabeled ligand typically G-CSF variant CS17
T2 construct: incubation with soluble G-CSFR harvest; made in house
T2 sequence (Q99062 25-627): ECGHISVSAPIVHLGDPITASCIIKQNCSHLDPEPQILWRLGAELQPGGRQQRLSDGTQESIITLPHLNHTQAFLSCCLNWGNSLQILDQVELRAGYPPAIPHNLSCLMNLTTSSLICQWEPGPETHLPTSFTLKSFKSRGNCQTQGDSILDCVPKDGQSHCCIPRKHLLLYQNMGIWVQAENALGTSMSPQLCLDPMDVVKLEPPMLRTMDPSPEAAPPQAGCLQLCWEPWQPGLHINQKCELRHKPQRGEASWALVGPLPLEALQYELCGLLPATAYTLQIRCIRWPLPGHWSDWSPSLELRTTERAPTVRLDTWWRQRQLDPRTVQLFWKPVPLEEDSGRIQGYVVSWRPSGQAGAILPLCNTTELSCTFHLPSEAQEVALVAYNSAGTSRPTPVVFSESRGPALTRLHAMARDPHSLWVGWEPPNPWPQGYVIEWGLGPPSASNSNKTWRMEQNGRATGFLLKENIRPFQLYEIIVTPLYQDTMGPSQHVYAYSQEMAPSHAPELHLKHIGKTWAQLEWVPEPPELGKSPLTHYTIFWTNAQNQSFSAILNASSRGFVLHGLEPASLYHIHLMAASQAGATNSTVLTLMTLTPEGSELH
From the text: Specific binding is binding of a ligand to a specific receptor, as opposed to non-specific binding that is mediated by non-specific interactions. Specific binding may be measured by subtraction of the non-specific binding (measured in the presence of saturating concentrations of unlabeled ligand) from the total binding (measured in the absence of saturating amounts of ligand). Typically, the unlabeled ligand used was a variant of G-CSF in which the cysteine normally found at position 17 was converted to serine (CS17).

G-CSFR [3] = molecular target: T2, G-CSFR; experiment: G-CSF radioligand binding assay (SPA beads, 125I labeled G-CSF); conditions: reduction by 50% of 125I labeled G-CSF bound to immobilized G-CSFR; overnight at 4° C.
Method: Streptavidin-coated scintillation proximity assay (SPA) beads (Amersham) were mixed with biotinylated anti-receptor immobilizing antibody (Ab179) followed by incubation with soluble G-CSFR harvest. Receptor-coated SPA beads were washed twice in PBS/0.1% BSA and distributed to wells of a white polystyrene 96-well microtiter plate (Packard). Serial dilutions of peptide or peptide mimetic were mixed with a constant amount of ^125I labeled G-CSF (10^5 cpm; 1290 Ci/mmol) in PBS/0.1% BSA, added to wells containing receptor-coated SPA beads, and incubated overnight at 4° C. The binding of radiolabeled G-CSF to the receptor-coated SPA bead brings the isotope in close proximity to the scintillant, which allows the emitted radiation to stimulate the scintillant to emit light. […] The amount of ^125I labeled G-CSF that was bound at equilibrium was measured by counting the plate in a TopCount (Wallac) microtiter plate luminometer. […] One can determine the concentration at which the peptide or peptide mimetic will reduce by 50% (IC50) the amount of ^125I labeled G-CSF bound to immobilized G-CSFR.

Molecule: ELSSEREWFC [Example 28, ELSSEREWFC]
- Competitive Binding? (G-CSFR [1]): Yes
- Specific Binding? (G-CSFR [2]): Yes

Molecule: DEMVYTVPYW [Example 31, DEMVYTVPYW]
- Competitive Binding? (G-CSFR [1]): Yes
- Specific Binding? (G-CSFR [2]): Yes

Molecule: ADNAERGWFC [Example 24, ADNAERGWFC]
- Competitive Binding? (G-CSFR [1]): Yes
- Specific Binding? (G-CSFR [2]): Yes

Molecule: DWQKTIPAYW [Example 34, DWQKTIPAYW]
- Competitive Binding? (G-CSFR [1]): Yes
- Specific Binding? (G-CSFR [2]): Yes

Molecule: STAERLWFCG [Example 22, STAERLWFCG]
- Competitive Binding? (G-CSFR [1]): Yes
- Specific Binding? (G-CSFR [2]): Yes

Molecule: SNESGWVWLP [Example 16, SNESGWVWLP]
- Competitive Binding? (G-CSFR [1]): No
- Specific Binding? (G-CSFR [2]): Yes

Molecule: QRANSGWVWV [Example 19, QRANSGWVWV]
- Competitive Binding? (G-CSFR [1]): No
- Specific Binding? (G-CSFR [2]): Yes

Molecule: DYDNSGWVWH [Example 20, DYDNSGWVWH]
- Competitive Binding? (G-CSFR [1]): No
- Specific Binding? (G-CSFR [2]): Yes

Molecule: ASWSERGWFC [Example 27, ASWSERGWFC]
- Competitive Binding? (G-CSFR [1]): Yes
- Specific Binding? (G-CSFR [2]): Yes

Molecule: STSERAWFCG [Example 26, STSERAWFCG]
- Competitive Binding? (G-CSFR [1]): Yes
- Specific Binding? (G-CSFR [2]): Yes

Molecule: DMVYAYPPWS [Example 30, DMVYAYPPWS]
- Competitive Binding? (G-CSFR [1]): No
- Specific Binding? (G-CSFR [2]): Yes

Molecule: SRTESGWVWT [Example 18, SRTESGWVWT]
- Competitive Binding? (G-CSFR [1]): No
- Specific Binding? (G-CSFR [2]): Yes

Molecule: EQSNSGWVWV [Example 17, EQSNSGWVWV]
- Competitive Binding? (G-CSFR [1]): No
- Specific Binding? (G-CSFR [2]): Yes

Molecule: HTTNEQFFMC [Example 32, HTTNEQFFMC]
- Competitive Binding? (G-CSFR [1]): Yes
- Specific Binding? (G-CSFR [2]): Yes

Molecule: DTWLELESRY [Example 33, DTWLELESRY]
- Competitive Binding? (G-CSFR [1]): No
- Specific Binding? (G-CSFR [2]): Yes

Molecule: DMQGERGWFC [Example 29, DMQGERGWFC]
- Competitive Binding? (G-CSFR [1]): Yes
- Specific Binding? (G-CSFR [2]): Yes

Molecule: CC(C)C[C@H](NC(=O)[C@H](CCCCN)NC(=O)[C@H](CO)NC(=O)[C@H](CCC(=O)O)NC(=O)[C@H](CC(C)C)NC(=O)[C@H](Cc1ccc(O)cc1)NC(=O)[C@H](Cc1c[nH]c2ccccc12)NC(=O)[C@H](CC(C)C)NC(=O)[C@@H](N)CC(=O)O)C(=O)N[C@@H](CCC(=O)O)C(=O)N[C@@H](CCC(=O)O)C(=O)N[C@@H](CSSC[C@H](NC(=O)[C@H](CCC(=O)O)NC(=O)[C@H](CCC(=O)O)NC(=O)[C@H](CC(C)C)NC(=O)[C@H](CCCCN)NC(=O)[C@H](CO)NC(=O)[C@H](CCC(=O)O)NC(=O)[C@H](CC(C)C)NC(=O)[C@H](Cc1ccc(O)cc1)NC(=O)[C@H](Cc1c[nH]c2ccccc12)NC(=O)[C@H](CC(C)C)NC(=O)[C@@H](N)CC(=O)O)C(=O)N[C@@H](C)C(=O)N[C@@H](CCCNC(=N)N)C(=O)N[C@@H](CCCNC(=N)N)C(=O)N[C@@H](C)C(=O)N[C@@H](CC(N)=O)C(=O)NCC(N)=O)C(=O)N[C@@H](C)C(=O)N[C@@H](CCCNC(=N)N)C(=O)N[C@@H](CCCNC(=N)N)C(=O)N[C@@H](C)C(=O)N[C@@H](CC(N)=O)C(=O)NCC(N)=O [Example 50] (I: H-DLWYLESKLEECARRANG-NH2 / II: H-DLWYLESKLEECARRANG-NH2; disulfide I:12-II:12)
- IC50 (G-CSFR [3]): 0.5 to 200 µM

Molecule: CC[C@H](C)[C@H](NC(=O)[C@H](CC(=O)O)NC(=O)[C@H](CC(C)C)NC(=O)[C@@H](N)CC(C)C)C(=O)N[C@@H](C)C(=O)N[C@@H](CCC(=O)O)C(=O)N[C@@H](CC(C)C)C(=O)N[C@@H](CCCCN)C(=O)N[C@@H](CC(C)C)C(=O)N[C@@H](CCC(N)=O)C(=O)N[C@@H](CCC(=O)O)C(=O)N[C@@H](CS)C(=O)N[C@@H](C)C(=O)N[C@@H](CCCNC(=N)N)C(=O)N[C@@H](CCCNC(=N)N)C(=O)N[C@@H](CS)C(=O)N[C@@H](CC(N)=O)C(=O)O [Example 61, LLDIAELKLQECARRCN] (H-LLDIAELKLQECARRCN-OH; N-terminus and C-terminus assumed)
- IC50 (G-CSFR [3]): 0.5 to 200 µM

Molecule: QSNSEREWFC [Example 25, QSNSEREWFC]
- Competitive Binding? (G-CSFR [1]): Yes
- Specific Binding? (G-CSFR [2]): Yes

Molecule: CTWTDLESVY [Example 10, CTWTDLESVY]
- Competitive Binding? (G-CSFR [1]): No
- Specific Binding? (G-CSFR [2]): No

Molecule: CSCC[C@H](NC(=O)[C@H](CC(C)C)NC(=O)[C@H](CC(C)C)NC(=O)[C@H](C)N)C(=O)N[C@@H](CS)C(=O)N[C@@H](CCC(=O)O)C(=O)N[C@@H](CO)C(=O)N[C@@H](CCCCN)C(=O)N[C@@H](CC(C)C)C(=O)N[C@@H](C)C(=O)N[C@@H](CCC(=O)O)C(=O)N[C@@H](CS)C(=O)N[C@@H](C)C(=O)N[C@@H](CCCNC(=N)N)C(=O)N[C@@H](C)C(=O)N[C@@H](CCCNC(=N)N)C(=O)O [Example 49, ALLMCESKLAECARAR] (H-ALLMCESKLAECARAR-OH; N-terminus and C-terminus assumed)
- IC50 (G-CSFR [3]): 200 µM

Molecule: YETAERSYFC [Example 23, YETAERSYFC]
- Competitive Binding? (G-CSFR [1]): Yes
- Specific Binding? (G-CSFR [2]): Yes

Molecule: ETWGERDWFC [Example 21, ETWGERDWFC]
- Competitive Binding? (G-CSFR [1]): Yes
- Specific Binding? (G-CSFR [2]): Yes
